Test results from PubChem BioAssay AID602310 (National Center for Advancing Translational Sciences (NCATS), 2012).
About 310 (0.076%) of roughly 410,000 compounds were called active. The inconclusive results got no clear call from the source; some entries with a clear call stand among them for comparison. Calls follow the shape of the dose curve; as a rule, active = well fitted curve in the direction sought with a large enough effect; inconclusive = small, poorly fitted or top-dose-only effect; inactive = flat fitted curve, though single readings scatter. Potencies beside an inconclusive call are fits to weak or partial responses and may not hold up.

What follows are molecules tested against DNA dC->dU-editing enzyme APOBEC-3G (Homo sapiens) (UniProt Q9HC16) (assay: qHTS for Inhibitors of Vif-A3G Interactions: qHTS). Details: HeLa A3G-eYFP + Vif (tagged APOBEC3G with the HIV-1 protein that degrades it), YFP fluorescence, overnight; series mostly up to 46.1 µM.
UniProt Q9HC16, sequence (Q9HC16 whole entry, looked up): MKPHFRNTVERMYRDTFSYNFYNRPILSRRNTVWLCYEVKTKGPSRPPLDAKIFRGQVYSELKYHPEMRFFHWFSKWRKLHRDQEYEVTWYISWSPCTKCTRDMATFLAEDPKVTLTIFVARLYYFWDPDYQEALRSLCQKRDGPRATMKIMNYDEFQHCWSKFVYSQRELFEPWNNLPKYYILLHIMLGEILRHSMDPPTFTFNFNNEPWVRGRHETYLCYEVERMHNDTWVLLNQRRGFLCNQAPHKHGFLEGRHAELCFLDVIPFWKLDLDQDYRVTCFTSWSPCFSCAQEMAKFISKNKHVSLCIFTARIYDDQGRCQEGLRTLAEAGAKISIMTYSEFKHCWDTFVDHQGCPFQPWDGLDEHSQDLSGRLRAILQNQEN
Method in brief: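 HeLa cells stably expressing Vif and C-terminally eYFP-tagged A3G, seeded overnight at 37 deg C, then exposed to compound by pintool overnight at 37 deg C. Rise in yellow fluorescence (Ex 488/Em 500-530, Acumen) marks blocked Vif-driven A3G degradation.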
Also: nearly all actives have a fitted effect of over 60% in size.
Potency is read from the fitted curve at half-maximal effect; tags tell the direction and shape of the fitted curve.

| SMILES | Potency |
| --- | --- |
| CCCCc1c(C)nn(-c2nnc3c4ccccc4n(CC)c3n2)c1C | inconclusive: 35.5 µM [inhibitor, single point] |
| CC(=O)c1cc2c(cc1NS(=O)(=O)c1ccc(C)cc1)OCCO2 | inconclusive: 6.31 µM [inhibitor, partial curve, poor fit] |
| CC(O)(c1ccc(F)c(F)c1)c1nc(-c2ccoc2)cs1 (centres undefined) | inconclusive: 25.1 µM [inhibitor, single point] |
| Cc1ccc(C)c(NC(=O)Cn2nnc(C(=O)NCc3ccco3)c2N)c1 | inconclusive: 2 µM [inhibitor, partial curve, poor fit] |
| CCN(CC)c1ccc2cc(C(N)=O)c(=N)oc2c1 | inconclusive: 35.5 µM [inhibitor, single point] |
| CCOC(=O)c1c(NC(=O)c2cc(=O)c3c(C)cc(C)cc3o2)sc2c1CCC2 | inactive |
| COC(=O)[C@@H]1Cc2c([nH]c3ccccc23)C(C)(C)N1C(=O)CCl | inconclusive: 15.8 µM [inhibitor, partial curve, poor fit] |
| CC(C)c1ccc(NC(=O)CCc2ccccc2)cc1 | inconclusive: 6.31 µM [inhibitor, partial curve] |
| CCN1CCN(CCCNC(=O)c2ccc3c(c2)N(Cc2ccc(C)cc2)CCS3)CC1 | inactive |
| CCn1c(=N)c(S(=O)(=O)c2ccccc2)cc2c(=O)n3ccccc3nc21 | inactive |
| CCOC(=O)N1CCN(/[N+]([O-])=N/Oc2ccc([N+](=O)[O-])cc2[N+](=O)[O-])CC1 | inconclusive: 6.31 µM [inhibitor, single point] |
| COc1ccc(OCc2cc(C(=O)NCCc3ccccc3)no2)c(Cl)c1 | inconclusive: 3.55 µM [inhibitor, full curve] |
| Cn1cc(/C=C/c2ccnc3ccccc23)c2ccccc21 | active: 10 µM |
| CN(C)c1ccccc1C(=O)c1ccccc1N(C)C | inconclusive: 1.41 µM [inhibitor, full curve, poor fit] |
| Cc1ccc(S(=O)(=O)N[C@@H](Cc2ccccc2)C(=O)CCl)cc1 | inconclusive: 20 µM [inhibitor, single point] |
| Cc1cc(-c2cc(C(=O)O)c3ccccc3n2)c(C)s1 | inconclusive: 35.5 µM [inhibitor, single point] |
| O=C(Nc1ccccc1N1CCOCC1)c1ccccc1NS(=O)(=O)c1ccc(F)cc1 | inactive |
| CCOC(=S)SCC(=O)Nc1nccs1 | inconclusive: 31.6 µM [inhibitor, single point] |
| Cc1ccc(C(=O)c2sc3nsc(C)c3c2N)cc1 | inconclusive: 17.8 µM [inhibitor, single point] |
